The campaign covered roughly 150,000 compounds. About 540 (0.36%) showed an effect of 50% or more. The list shows a part of the results.

The test system of this experiment is Plasmodium falciparum. As to the kind of experiment: Primary screen in NF54 nanoGlo assay, in single point, at 2uM, 72h; a lower Z score goes with more inhibition. As to conditions: timepoint 72 hour. The format is functional, Erythrocyte.
Take `COc1ccccc1Oc1cc(C#N)c(C#N)cc1N1CCOCC1`: the “% Inhibition” value amounted to 20% and the Z score is recorded as -2.48.

Take `CC(=O)Nc1ccc(NC(=O)Cn2ccc3ccn(Cc4ccccc4)c3c2=O)cc1`: the “% Inhibition” value is -12% and the Z score is given as 1.47.

As for `CC1(C)CC[C@H](N2CCCN(CC(=O)N3CCCC3)CC2)C1`, the “% Inhibition” value is recorded as -17% and the Z score was 2.69.

For the compound `Fc1ccc(-n2cc(-c3noc(-c4ccccc4)n3)nn2)cc1`, the “% Inhibition” value is given as -17% and the Z score was 3.4.

With `O=C(NC1CCCCCCC1)[C@H]1CCCN(c2ccc3nncn3n2)C1`, the “% Inhibition” value was -24% and the Z score is on record as 2.11.

Turning to `O=C(NCCCN1CCN(c2cccc(Cl)c2)CC1)[C@H]1CCCN(c2nc3ccccc3[nH]2)C1`, the “% Inhibition” value was 7% and the Z score is reported as -1.19.

In the case of `C#CC(NC(=O)N1CCCC1c1nc(C(=O)OC)c(C)s1)C(C)C` (stereo not given), the “% Inhibition” value was -18% and the Z score worked out at 2.41.

With `O=C(NCc1cccnc1)[C@@H]1C[C@H](NCc2ccccc2F)CN1Cc1ccccc1Cl`, the “% Inhibition” value is on record as -5% and the Z score was found to be 0.96.

For `N#Cc1ccc(NCc2nccn2CCCc2ccccc2)nc1`, the “% Inhibition” value is -11% and the Z score was 1.08.

For `COCC1(CNc2nc(C)cc(C)n2)CCCC1`, the “% Inhibition” value is -1% and the Z score amounted to 0.12.

With `CC(C)Cn1ncc(C(=O)N2CCN(C)c3ccccc32)c1C(F)F`, the “% Inhibition” value turned out to be 0% and the Z score is reported as -0.04.

For the compound `CCC1(C)CCCC1NCC(=O)NCC1CC1` (stereo not given), the “% Inhibition” value is given as -4% and the Z score amounted to 0.81.

Consider `CCOC(=O)C1CCCN(C(C)C(=O)Nc2ccccc2-c2ccccc2)C1` (stereo not given), for which the “% Inhibition” value is -8% and the Z score amounted to 0.97.

For `C[C@H](NC(=O)c1nccn1C)c1nnc(N)s1`, the “% Inhibition” value is on record as -11% and the Z score amounted to 1.44.

Regarding `CC(C)N(Cc1ccccc1)C(=O)C1CCN(C(=O)c2ccco2)CC1`, the “% Inhibition” value is on record as -6% and the Z score amounted to 1.15.

In the case of `CN(C(=O)OC(C)(C)C)C1CCN(CC2CCCO2)C1` (stereo not given), the “% Inhibition” value is reported as -14% and the Z score is listed as 1.2.

For `COc1cc(=O)n(C)cc1C(=O)NCc1ccco1`, the “% Inhibition” value was -5% and the Z score is on record as 0.93.

Regarding `CCn1ccnc1CNC(=O)N1CC[C@](C)(F)C1`, the “% Inhibition” value is recorded as -12% and the Z score turned out to be 1.45.

Regarding `O=C(N[C@H]1CCCCNC1=O)c1cccc(NCc2cncs2)c1`, the “% Inhibition” value was -3% and the Z score was 0.38.

As to `CN(CCCNCc1csnn1)c1ccccc1`, the “% Inhibition” value is on record as -13% and the Z score turned out to be 1.45.

For the compound `Cc1cccc(N2CCC(NCCOCCO)CC2)c1C`, the “% Inhibition” value is reported as -6% and the Z score is given as 1.07.

Regarding `Cc1oncc1CN1CCN(c2ccc(F)cc2)CC1`, the “% Inhibition” value is listed as -5% and the Z score was 0.84.

With `O=C(c1cnc2cc(Cl)ccc2c1O)N1CCOCC1`, the “% Inhibition” value is given as -8% and the Z score came out at 0.94.

As to `CC(C)Cc1ccc([C@@H](NCc2nnn(C)n2)C2CC2)cc1`, the “% Inhibition” value is listed as -13% and the Z score stood at 1.52.

As to `Cc1cccc2nc(NCC(C)(C)CS(C)(=O)=O)oc12`, the “% Inhibition” value is -9% and the Z score was determined as 0.92.

The term % Inhibition denotes the relative decrease from the control value, in per cent.

For the origin of these results see ChEMBL document CHEMBL4888484, “Replenishing the malaria drug discovery pipeline: Screening and hit evaluation of the MMV Hit Generation Library 1 (HGL1) against asexual blood stage Plasmodium falciparum ,using a nano luciferase reporter read-out” (2022).
